# Measurements as given in the supplement of paper PMC8728848.
# Some of the results follow.
# B1: CaSRK1 (Capsicum annuum) (protein)
# chain: MALCKIFPFAFILLSCSCYLISGQRFDYPTANLSTTWINSVSAPHSIDYTDGSRIRAILLRGTFGPRYACGFYCNGNCESYLFAIFIVQTNSASQITSPAIGFPQVVWSANRNNPVKINSTLQLTAEGDLVLRDADGTLAWSTNTAGKSVAGLSLTDEGNLALFDSKNATVWQSFDHPTDALVPGQKLVPGMKLTASVSRTNWTAGGLFALSAIDNGLVAFVESNPPQKYFEASVGGSNTSGGSNYVKYLNGSLTLFTHSADTTELILISITPASSAQYMKLESNGHLKVYEWTSRGWREVDDLLTGFRGECNYPTVCGRYGICTMGQCSCPTSSSSRTYFRPIDVRRPSLGCSEVTKLTCQNTKKHSPLEVEDVDYFAFKAGISDTDLNTCKRACLEKCSCKAAFFRSGLNSSRTRGDCYLPTEIFSIMNNEKDRTRYDSVAFIKVQV
# Experiments:
# Experiment in all cases: glycan array binding signal (z-score within array); higher = stronger binding
# Settings in all cases: glycan notation: IUPAC condensed, linker removed
# [1] = molecular target: Neu5Ac(a2-6)Gal(b1-4)GlcNAc(b1-2)Man(a1-3)[Neu5Ac(a2-3)Gal(b1-4)GlcNAc(b1-2)Man(a1-6)]Man(b1-4)GlcNAc(b1-4)GlcNAc
# Outline: (§1)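 Negative Z-scores can be read as non-binding. The Z-score is calculated within each array and then averaged across arrays of one protein sequence at different concentrations or buffers and across linkers. Arrays, 3228 in all, were curated from the Consortium for Functional Glycomics database and kept only where the protein sequence was available.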
# [2] = molecular target: Neu5Ac(a2-6)Gal(b1-4)GlcNAc(b1-2)Man(a1-3)[Neu5Ac(a2-6)Gal(b1-4)GlcNAc(b1-2)Man(a1-6)]Man(b1-4)GlcNAc(b1-4)GlcNAc
# Outline: as §1
# [3] = molecular target: Neu5Ac(a2-6)Gal(b1-4)GlcNAc(b1-2)Man(a1-3)[Neu5Ac(a2-6)Gal(b1-4)GlcNAc(b1-2)Man(a1-6)]Man(b1-4)GlcNAc(b1-4)[Fuc(a1-6)]GlcNAc
# Outline: as §1
# [4] = molecular target: Neu5Ac(a2-6)Gal(b1-4)GlcNAc(b1-2)Man(a1-6)Man(b1-4)GlcNAc(b1-4)GlcNAc
# Outline: as §1
# [5] = molecular target: Neu5Ac(a2-6)Gal(b1-4)GlcNAc(b1-2)Man(a1-6)[Gal(b1-4)GlcNAc(b1-2)Man(a1-3)]Man(b1-4)GlcNAc(b1-4)GlcNAc
# Outline: as §1
# [6] = molecular target: Neu5Ac(a2-6)Gal(b1-4)GlcNAc(b1-2)Man(a1-6)[GlcNAc(b1-2)Man(a1-3)]Man(b1-4)GlcNAc(b1-4)GlcNAc
# Outline: as §1
# [7] = molecular target: Neu5Ac(a2-6)Gal(b1-4)GlcNAc(b1-2)Man(a1-6)[Man(a1-3)]Man(b1-4)GlcNAc(b1-4)GlcNAc
# Outline: as §1
# [8] = molecular target: Neu5Ac(a2-6)Gal(b1-4)GlcNAc(b1-2)[Neu5Ac(a2-6)Gal(b1-4)GlcNAc(b1-4)]Man(a1-3)[GlcNAc(b1-4)][Neu5Ac(a2-6)Gal(b1-4)GlcNAc(b1-2)[Neu5Ac(a2-6)Gal(b1-4)GlcNAc(b1-6)]Man(a1-6)]Man(b1-4)GlcNAc(b1-4)GlcNAc
# Outline: as §1
# [9] = molecular target: Neu5Ac(a2-6)Gal(b1-4)GlcNAc(b1-2)[Neu5Ac(a2-6)Gal(b1-4)GlcNAc(b1-4)]Man(a1-3)[GlcNAc(b1-4)][Neu5Ac(a2-6)Gal(b1-4)GlcNAc(b1-4)Man(a1-6)]Man(b1-4)GlcNAc(b1-4)GlcNAc
# Outline: as §1
# [10] = molecular target: Neu5Ac(a2-6)Gal(b1-4)GlcNAc(b1-2)[Neu5Ac(a2-6)Gal(b1-4)GlcNAc(b1-6)]Man(a1-6)[Neu5Ac(a2-6)Gal(b1-4)GlcNAc(b1-2)Man(a1-3)][GlcNAc(b1-4)]Man(b1-4)GlcNAc(b1-4)GlcNAc
# Outline: as §1
# [11] = molecular target: Neu5Ac(a2-6)Gal(b1-4)GlcNAc(b1-3)Gal(b1-3)GlcNAc
# Outline: as §1
# [12] = molecular target: Neu5Ac(a2-6)Gal(b1-4)GlcNAc(b1-3)Gal(b1-4)GlcNAc
# Outline: as §1
# [13] = molecular target: Neu5Ac(a2-6)Gal(b1-4)GlcNAc(b1-3)Gal(b1-4)GlcNAc(b1-2)Man(a1-3)[Neu5Ac(a2-6)Gal(b1-4)GlcNAc(b1-3)Gal(b1-4)GlcNAc(b1-2)Man(a1-6)]GalNAc
# Outline: as §1
# [14] = molecular target: Neu5Ac(a2-6)Gal(b1-4)GlcNAc(b1-3)Gal(b1-4)GlcNAc(b1-3)Gal(b1-4)GlcNAc
# Outline: as §1
# [15] = molecular target: Neu5Ac(a2-6)Gal(b1-4)GlcNAc(b1-3)Gal(b1-4)GlcNAc(b1-3)Gal(b1-4)GlcNAc(b1-2)Man(a1-3)[Neu5Ac(a2-6)Gal(b1-4)GlcNAc(b1-3)Gal(b1-4)GlcNAc(b1-3)Gal(b1-4)GlcNAc(b1-2)Man(a1-6)]GalNAc
# Outline: as §1
# [16] = molecular target: Neu5Ac(a2-6)Gal(b1-4)GlcNAc(b1-3)Gal(b1-4)GlcNAc(b1-3)GalNAc
# Outline: as §1
# [17] = molecular target: Neu5Ac(a2-6)Gal(b1-4)GlcNAc(b1-3)Gal(b1-4)GlcNAc(b1-3)[Neu5Ac(a2-6)Gal(b1-4)GlcNAc(b1-3)Gal(b1-4)GlcNAc(b1-6)]GalNAc
# Outline: as §1
# [18] = molecular target: Neu5Ac(a2-6)Gal(b1-4)GlcNAc(b1-3)Gal(b1-4)GlcNAc(b1-6)[Gal(b1-3)]GalNAc
# Outline: as §1
# [19] = molecular target: Neu5Ac(a2-6)Gal(b1-4)GlcNAc(b1-3)Gal(b1-4)[Fuc(a1-3)]GlcNAc(b1-3)Gal(b1-4)[Fuc(a1-3)]GlcNAc
# Outline: as §1
# [20] = molecular target: Neu5Ac(a2-6)Gal(b1-4)GlcNAc(b1-3)GalNAc
# Outline: as §1
# [21] = molecular target: Neu5Ac(a2-6)Gal(b1-4)GlcNAc(b1-3)[Neu5Ac(a2-6)Gal(b1-4)GlcNAc(b1-6)]GalNAc
# Outline: as §1
# [22] = molecular target: Neu5Ac(a2-6)Gal(b1-4)GlcNAc(b1-6)GalNAc
# Outline: as §1
# [23] = molecular target: Neu5Ac(a2-6)Gal(b1-4)GlcNAc(b1-6)[Gal(b1-3)GlcNAc(b1-3)]Gal(b1-4)Glc
# Outline: as §1
# [24] = molecular target: Neu5Ac(a2-6)Gal(b1-4)GlcNAc(b1-6)[Gal(b1-3)]GalNAc
# Outline: as §1
# [25] = molecular target: Neu5Ac(a2-6)Gal(b1-4)GlcNAc6S
# Outline: as §1
# Neu5Ac(a2-6)GalNAc = molecular target: Neu5Ac(a2-6)GalNAc
# Outline: as §1
# [26] = molecular target: Neu5Ac(a2-6)GalNAc(b1-4)GlcNAc
# Outline: as §1
# [27] = molecular target: Neu5Ac(a2-6)GalNAc(b1-4)GlcNAc6S
# Outline: as §1
# [28] = molecular target: Neu5Ac(a2-6)GlcNAc(b1-4)GlcNAc
# Outline: as §1
# [29] = molecular target: Neu5Ac(a2-6)GlcNAc(b1-4)GlcNAc(b1-4)GlcNAc
# Outline: as §1
binder,measurement,setting,value
B1,glycan array binding signal (z-score),[1],-0.135
same,glycan array binding signal (z-score),[2],0.437
same,glycan array binding signal (z-score),[3],-0.491
same,glycan array binding signal (z-score),[4],-0.596
same,glycan array binding signal (z-score),[5],-0.59
same,glycan array binding signal (z-score),[6],-0.31
same,glycan array binding signal (z-score),[7],-0.589
same,glycan array binding signal (z-score),[8],-0.443
same,glycan array binding signal (z-score),[9],-0.513
same,glycan array binding signal (z-score),[10],-0.576
same,glycan array binding signal (z-score),[11],-0.15
same,glycan array binding signal (z-score),[12],-0.402
same,glycan array binding signal (z-score),[13],-0.326
same,glycan array binding signal (z-score),[14],-0.316
same,glycan array binding signal (z-score),[15],2.58
same,glycan array binding signal (z-score),[16],0.344
same,glycan array binding signal (z-score),[17],0.636
same,glycan array binding signal (z-score),[18],-0.554
same,glycan array binding signal (z-score),[19],-0.477
same,glycan array binding signal (z-score),[20],-0.275
same,glycan array binding signal (z-score),[21],-0.528
same,glycan array binding signal (z-score),[22],0.065
same,glycan array binding signal (z-score),[23],-0.397
same,glycan array binding signal (z-score),[24],-0.489
same,glycan array binding signal (z-score),[25],0.264
same,glycan array binding signal (z-score),Neu5Ac(a2-6)GalNAc,-0.455
same,glycan array binding signal (z-score),[26],-0.346
same,glycan array binding signal (z-score),[27],0.167
same,glycan array binding signal (z-score),[28],-0.582
same,glycan array binding signal (z-score),[29],-0.548
